Assay results: the supplement of paper PMC12645437, “Orthogonal IMiD-Degron Pairs Induce Selective Protein Degradation in Cells” (ACS Chemical Biology, 2025)
The other results are listed elsewhere or left out.

Molecular target: no compound (DMSO)
Assay: log2 fold change of degron read counts, EGFP-low vs EGFP+ sorted cells; higher = lower degron-EGFP level without compound (poor expression or instability)
Conditions: compound: DMSO control; 18 h
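Further: jurkat cells carrying a lentiviral library of mutant zinc finger degrons fused to EGFP plus mCherry, mCherry+ cells FACS sorted, degron abundance counted by next-generation sequencing.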

| Sequence | log2 fold change of degron read counts |
| --- | --- |
| FCCDICGAVFTQKGNLLRHIKL | -1.7 |
| FTCEVCGAVFTQKGNLLRHIKL | -0.926 |
| LNCEICGFSCTQKGNLLRHIKL | -0.347 |
| FDCSVCGHTFTQKGNLLRHIKL | -0.918 |
| LQCNQCGFQCTQKGNLLRHIKL | -0.0555 |
| FRCEICGHTFTQKGNLLRHIKL | -1.86 |
| LECNQCGFRCTQKGNLLRHIKL | -0.409 |
| FACNVCGAEFTQKGNLLRHIKL | -1.17 |
| FTCNICGAKFTQKGNLLRHIKL | -0.841 |
| FHCNVCGAIFTQKGNLLRHIKL | 0.358 |
| FRCPQCGADFTQKGNLLRHIKL | -1.71 |
| FLCEICGAQFTQKGNLLRHIKL | -2.24 |
| LTCEICGFCCTQKGNLLRHIKL | -0.512 |
| FDCPICGRYFTQKGNLLRHIKL | 0.765 |
| FMCPQCGARFTQKGNLLRHIKL | -0.646 |
| FLCEICGAHFTQKGNLLRHIKL | -1.77 |
| FMCPQCGAMFTQKGNLLRHIKL | -0.0818 |
| FICEICGHHFTQKGNLLRHIKL | -1.57 |
| FNCDVCGACFTQKGNLLRHIKL | -0.837 |
| FVCEICGAQFTQKGNLLRHIKL | -1.97 |
| FRCDICGARFTQKGNLLRHIKL | -1.36 |
| LQCEICGFSCTQKGNLLRHIKL | -0.625 |
| FMCPICGAQFTQKGNLLRHIKL | -0.243 |
| FKCDVCGAPFTQKGNLLRHIKL | -1.2 |
| FVCNQCGRSFTQKGNLLRHIKL | -1.06 |

| Sequence | log2 fold change of degron read counts |
| --- | --- |
| FSCEQCGAPFTQKGNLLRHIKL | -1.55 |
| LWCPICGFACTQKGNLLRHIKL | 2.42 |
| FGCDVCGAFFTQKGNLLRHIKL | 0.0157 |
| FKCPICGHIFTQKGNLLRHIKL | -0.846 |
| FSCPICGRTFTQKGNLLRHIKL | -0.747 |
| FDCPICGALFTQKGNLLRHIKL | -0.436 |
| FMCDQCGAIFTQKGNLLRHIKL | -0.622 |
| FNCPQCGASFTQKGNLLRHIKL | -1.49 |
| FACEICGHDFTQKGNLLRHIKL | -1.24 |
| FTCEVCGAEFTQKGNLLRHIKL | -2.35 |
| FTCSVCGHAFTQKGNLLRHIKL | -0.659 |
| FLCEICGHLFTQKGNLLRHIKL | -1.66 |
| FQCPVCGAQFTQKGNLLRHIKL | -0.176 |
| FRCNQCGRKFTQKGNLLRHIKL | -0.704 |
| FDCNICGAPFTQKGNLLRHIKL | -0.239 |
| FDCNQCGRPFTQKGNLLRHIKL | 0.558 |
| FGCPVCGANFTQKGNLLRHIKL | -0.577 |
| FMCEICGRQFTQKGNLLRHIKL | -1.23 |
| FACDQCGAHFTQKGNLLRHIKL | -1.88 |
| FHCNVCGASFTQKGNLLRHIKL | -1.32 |
| FHCEICGAPFTQKGNLLRHIKL | -0.707 |
| LFCPICGFHCTQKGNLLRHIKL | 1.57 |
| FGCEICGHQFTQKGNLLRHIKL | -0.241 |
| FHCEICGHYFTQKGNLLRHIKL | -1.09 |
| FQCPQCGAVFTQKGNLLRHIKL | -0.609 |
